The values below come from the supplement of paper PMC11417369.

Some of the results follow.

In this experiment the test system is PfHDP1 homeodomain (GST-tagged). The experiment is described as follows: gcPBM binding intensity (ln(normalized median fluorescence intensity)); higher = stronger DNA binding. In outline:
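Using an Agilent 4 × 180k array, primer-extended double-stranded 36-bp intergenic genomic probes and negative controls were exposed for 1 h to GST-fused P. falciparum DNA-binding domains expressed in E. coli. Binding was carried out in 1× PBS with 1% milk, 0.2 mg/ml BSA, 0.5% salmon testes DNA and 0.03% Triton X-100, and protein was detected with Alexa488 anti-GST antibody and a 488 nm scan. Binding intensity is the highest Masliner-normalised natural-log median intensity across replicate spots of either probe orientation.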
With “ACCCAATTTTAAAATGAACACACATGTTTTTCTTAC [CACACA_site8246]”, the “gcPBM binding intensity (ln)” value was 6.93. Under “ATAATTATATATTTATGTACGCATAAATATTTATAT [XGTACX_site5765]” stands 6.38; under “AACTATATCATTTATTTTATTTTTTAAATACATTTA [CACACA_negctrl_site183]”, 6.19; under “TATATATAACTTTATTGTACAAAATATTATGTATTC [XGTACX_site981]”, 6.57. Under “TTATATTATTTTTAATGTACTTTTTATGAATACAAA [XGTACX_site689]” stands 7.03. The same measure for “TATACAACTTTATGAAGTACAAAAAGTTCTATATAT [XGTACX_site3866]”: 6.15. In the case of TTGTTTTATTATTCGATGCACTACAGAAATATATTC, the “gcPBM binding intensity (ln)” value turned out to be 7.75. As for “TATAATATTATATATAAACACACATACACATGTAAA [CACACA_site8631]”, the “gcPBM binding intensity (ln)” value turned out to be 7.08. Under “AGAAAAGTTTAATACAGTACATAAACAAAGTATAGG [XGTACX_site2386]” stands 6.71. Under “GTATATTTATAGCCTTTATTATATTTAATATTATTA [TGCATGCA_negctrl_site26]” stands 6.24; under “GTTATATTTTTTTATACACACTGGAATATATAAATA [CACACA_site4282]”, 6.76; under “TGTAATAAATAGTACACACACACATATTTATATATC [CACACA_site6770]”, 6.87. The same measure for “ATATGGGTAATGAATTGTACTCTTTCTTGTTGTTCT [XGTACX_site4487]”: 6.34.

As to “GTATAATTTTCGTATTCACACAAGAATATACTACAT [CACACA_site4877]”, the “gcPBM binding intensity (ln)” value turned out to be 6.51.

For the sequence “AATATATGTATGTACGCATGTATGTATCTATGTATT [TGCATGCA_site389]”, the “gcPBM binding intensity (ln)” value was determined as 6.52. Under “TTATAATTATATACATGTACATATAATACATATATA [XGTACX_site8904]” stands 6.54; under “TATATTATATACCATTGTACATATAATATAGGTTCT [XGTACX_site7047]”, 6.25; under “AAAATCATTCCAAAGACATGCATTTTGCAAATAAAA [TGCATGCA_site461]”, 9.22. With “AAAAACAGAAATGTAACACACAAAAATTCTATTTAT [CACACA_site4026]”, the “gcPBM binding intensity (ln)” value came out at 6.2. The same measure for “TTTTGTTATAAATAATGTACATATTTATTTAAAATT [XGTACX_site6610]”: 6.25. With “TCTATAAAGGAATATACACACATATATAAATATGTA [CACACA_site6332]”, the “gcPBM binding intensity (ln)” value stood at 6.27. Under “AACCTTTATATGTAAAGTACAAAAAAGAGTAAAAAA [XGTACX_site5506]” stands 6.69; under “TATAAAAATGTGCACACACACACATATTTATATTTA [CACACA_site6826]”, 10.1; under “TTTATTATTTTTAGGAGTACACAAAATAAAACAAAT [XGTACX_site8841]”, 6.68. Under “ATTAATTATAATGTATGTACATAACTTTTTTATATT [XGTACX_site5784]” stands 6.5; under “GAAAATACGTTTAATCGTACATATATATAATATATA [XGTACX_site4243]”, 6.56. Under “AACATACATAGACACACACACACACGCACACGCACA [CACACA_site6373]” stands 7.4; under “ACAAGTTTTTTTTTATCACACACAAAAAAAAAAATA [CACACA_site8377]”, 6.29; under “TATTTACCCTCATGTTGTACTTTTCATTCATTTTAT [XGTACX_site7794]”, 7.34.

“TATAACATTGTATGAATGCACTTTTATCTATTTTAA [GTGCAC_site9903]”: the “gcPBM binding intensity (ln)” value amounted to 7.25. For “AAGATACACTTAATCGCACACGAAATTATATATTTA [CACACA_site3063]”, the “gcPBM binding intensity (ln)” value came to 6.98.

Turning to “TTTTTTTTTTATGTTATTAAAAAAAAAAAAAATTAA [CACACA_negctrl_site222]”, the “gcPBM binding intensity (ln)” value was 5.75. For the sequence “AAATGTTATATATAATGTACTTGTAAGAACGTTCCT [XGTACX_site2840]”, the “gcPBM binding intensity (ln)” value amounted to 6.47. Under “ATAATTTTAAATAAATGTACATATAGATGTGTGTAA [XGTACX_site3958]” stands 6.89. On to “AATAATGTATGAAATAAACACACAAGTAAGTACATA [CACACA_site8776]”, for which the “gcPBM binding intensity (ln)” value is 6.61. Under “AAAATTATATATTATAGTACATAAAATATTGATAAA [XGTACX_site8988]” stands 6.27; under “ATGAGAAAATATATTATTTTATATGAACAAGTTTAT [XGTACX_negctrl_site372]”, 6.09.

For “AAAAAAAAAAAAAAAACACACATTTAATGAACTTAT [CACACA_site1276]”, the “gcPBM binding intensity (ln)” value was found to be 6.6. The same measure for “ACTTGTAAGAAACACACACACACACCGATATATATA [CACACA_site4594]”: 6.87; for “AAAAATAAGAAAAAGTGTACTTTATTATGTATATAT [XGTACX_site2305]”: 6.35; for “ATTATTTTTTTTCTTATACACACCATGCATCAAACT [CACACA_site2128]”: 7.76. The same measure for “ATATATAATCATATGTGTACATATATATTAATTTAA [XGTACX_site2839]”: 6.54; for “AATTCAAAATAAAAATGTACATATATCAGAATATGG [XGTACX_site42]”: 6.5; for “TTTTTTTTTTTTTATTGTACATGCAAAAAATTCCAC [XGTACX_site2371]”: 6.43.

With “ATATATATATATTGTAGTACTTATTAAATTATTTAT [XGTACX_site6235]”, the “gcPBM binding intensity (ln)” value is 8.71. Under “TCTGTATTTCCTTATGCATGCATTAGCAAGATAATA [TGCATGCA_site483]” stands 7.19. Under “GTAAGTATATATAAATGTACTTATGAGGTCAAATTA [XGTACX_site3392]” stands 6.18; under “TTGGGTATTTTGTGCGCACACACATGCAAAAAGAAA [CACACA_site8299]”, 9.63; under “CCAACTATATTATGAAGTACATATATATTATATATA [XGTACX_site5767]”, 6.74. On to “TATACATATTTTATAGCACACAAATAATAATATGTA [CACACA_site8129]”, for which the “gcPBM binding intensity (ln)” value turned out to be 6.63.

Turning to “AAACCTACATAACATACACACGCATATATATAATTT [CACACA_site8923]”, the “gcPBM binding intensity (ln)” value stood at 6.89. The same measure for “TGCGACCATAATAAAGCACACAATGAAAAATATATA [CACACA_site256]”: 6.77. The same measure for “ATAATATGAAACTAAGGTACACATATATTAACAGAG [XGTACX_site3842]”: 6.73; for “TACAAATTAATATGTACACACAAATATATATATATA [CACACA_site1977]”: 9.17; for “TGTGCTCAAAATTATGCACACACCTAAAATTAATTT [CACACA_site8950]”: 10.7. The same measure for “AGAGATACATAAAAAAGTACATATAAAATTTAGGAA [XGTACX_site7201]”: 6.52. In the case of “TAAGTATACTCATACACACACACACTAGAAAAAAAA [CACACA_site4397]”, the “gcPBM binding intensity (ln)” value was 6.89.
